For one assay, the target named is T1, PYR1^PIRI (Arabidopsis thaliana, UniProt O49686, A160T/E130G/F159T/K59R/N119S/S122Q/S92M/V174A).
T1 construct: expressed in transfected cells; host or cells: S. cerevisiae (2µ plasmid)
T1 sequence (O49686 1-191 K59R/S92M/N119S/S122Q/E130G/F159T/A160T/V174A): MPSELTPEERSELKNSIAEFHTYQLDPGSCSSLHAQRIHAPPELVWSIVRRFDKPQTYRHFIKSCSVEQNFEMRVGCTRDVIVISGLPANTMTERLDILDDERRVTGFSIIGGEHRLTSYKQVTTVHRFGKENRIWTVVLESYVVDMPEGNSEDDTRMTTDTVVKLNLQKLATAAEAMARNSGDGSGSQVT
T1 sequence (Q9CAJ0 178-511 partner): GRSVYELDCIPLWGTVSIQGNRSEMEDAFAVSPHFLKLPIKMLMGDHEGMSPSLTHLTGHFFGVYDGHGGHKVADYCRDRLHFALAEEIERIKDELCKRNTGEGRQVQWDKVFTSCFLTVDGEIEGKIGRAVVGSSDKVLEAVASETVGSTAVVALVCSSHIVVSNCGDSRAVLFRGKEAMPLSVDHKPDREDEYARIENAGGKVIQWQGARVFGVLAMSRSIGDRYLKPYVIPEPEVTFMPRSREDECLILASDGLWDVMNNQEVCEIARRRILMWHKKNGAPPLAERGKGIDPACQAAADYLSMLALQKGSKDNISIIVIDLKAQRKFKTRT
Briefly: cell-based. Format: cell-based. Particulars: for Top: PYR1-PIRI, fit top of GFP fluorescence response. An excerpt: (§1) PYR1 variants were used to drive gene expression in an inducible genetic circuit by fusing a zinc finger DNA binding domain (Z4^32) to the N-terminus of PYR1, and the VP64 activation domain 33 to the N-terminus of ΔN-HAB1. The SV40 nuclear localization signal was also fused to the N-terminus of PYR1. A single 2u plasmid was used to express SV40-Z4DBD-PYR1 and VP64-HAB1, while the GFP expression cassette (Z44-CYCcore-GFP-CYC 1term) was integrated at the YPRCΔ15 site on chromosome XVI. GFP fluorescence induced by each circuit was measured 12 h after ligand addition to 1 mL cultures, 30° C. Fluorescence was measured by flow cytometry. Briefly, 50 μL of resuspended cells were transferred to a 96-well plate for analysis. The fluorescence intensity of each cell was measured using a BD Accuri C6 flow cytometer equipped with auto-loading. The forward scatter, side scatter, and GFP fluorescence (Ex/Em 488/533 nm) were recorded for a minimum of 10,000 events.
(§2) Transformed yeast cells were acquired by first inoculating 5 mL of liquid media and incubating in a shaker incubator overnight at 30° C. Cells from the overnight culture were then used to inoculate a 50 mL culture with an initial cell density of 5×10^6 cells/mL. This culture was grown at 30° C. with 200 rpm shaking until ~2×10^7 cells/mL were produced, approximately 3 to 5 hours. Cells were harvested by centrifugation at 4000 rpm for 5 min, washed with 25 mL sterile, deionized water, resuspended in 1 mL of 100 mM LiAc, and transferred to a 1.5 mL tube, producing a cell suspension with approximately 10^9 cells/mL. The cell suspension was briefly mixed by vortexing and 100 μL was transferred into a clean 1.5 mL tube for each transformation. Cells were pelleted at 13000 rpm for 15 sec and the supernatant was removed. A transformation mixture of 240 μL PEG (50% w/v), 36 μL 1.0 M LiAc, 50 μL salmon sperm DNA (2.0 mg/ml), plasmid, and sterile water were added to the cell pellet and mixed by vortexing for 1 min (total volume of 360 μL). The mixed transformation solution was then heat shocked at 42° C. for 40 min. Post heat-shock, cells were recovered by centrifugation at 8000 rpm for 30 sec. Cells resuspended in 400 μL sterile water were plated on appropriate selection media, in this case agar-SD media without uracil. Plates were incubated at 30° C. until mature colonies were formed.
(§3) Three single transformants were picked from selection plates, inoculated in 2 mL of SD-Ura containing 2% glucose in 14 mL culture tubes. After 24 hours of growth at 30° C. in a shaker incubator (200 rpm), the OD600 of each sample was measured and cultures were back diluted to OD600=0.2 in fresh SD-Ura, the total volume of diluted culture was 9 mL. Each 9 mL culture was separated into 8 unique cultures by transferring 1 mL into 8 different wells of a 96 deep-well plate. Each well was used to evaluate the effect of a specific concentration of ligand. After all the cultures were transferred, 1 μL of stock ligand solution (each stock varying in concentration) was added to each well. The plate was sealed with an air-breathable polymer film and cultured with 1000 rpm shaking at 30° C. for 12 hours. Shaker humidity was maintained at 90%. Cells were harvested by centrifuge at 5000 g for 10 min, and after discarding the supernatant, the cells were suspended in 1 mL PBS buffer and centrifuged at 5000 g for 10 min. The cells were washed with 1 mL PBS buffer twice and resuspended in 1 mL DI water for flow cytometry analysis. For flow cytometry analysis, 50 μL of resuspended cells were transferred to a 96-well plate with flat bottom, adding DI water up to final volume 200 μL. The fluorescence intensity of cells within each sample was measured using a BD Accuri C6 flow cytometer equipped with auto-loading from 96 well plates. The forward scatter, side scatter, and GFP fluorescence (Ex/Em 488/533 nm) were recorded for a minimum of 10,000 events.

The target of another assay is T2, PYR1^DIAZI (Arabidopsis thaliana, UniProt O49686, A160V/E8G/F108Y/F159G/L87M/M158V/V81Y).
T2 construct: expressed in transfected cells; host or cells: S. cerevisiae (2µ plasmid)
T2 sequence (O49686 1-191 E8G/V81Y/L87M/F108Y/M158V/F159G/A160V): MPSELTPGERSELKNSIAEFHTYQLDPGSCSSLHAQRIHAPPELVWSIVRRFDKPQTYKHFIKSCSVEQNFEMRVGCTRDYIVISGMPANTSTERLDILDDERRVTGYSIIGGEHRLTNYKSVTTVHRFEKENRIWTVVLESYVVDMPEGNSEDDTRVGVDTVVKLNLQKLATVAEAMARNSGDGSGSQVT
T2 sequence (Q9CAJ0 178-511 partner): T1 sequence (Q9CAJ0 178-511 partner)
Briefly: cell-based. Particulars: for Bottom / Top: PYR1-DIAZI; for Bottom: fit bottom of GFP fluorescence response; for Top: fit top of GFP fluorescence response. The class given is cell-based.
From the text: as §1, §2, §3

Each structure is given as a SMILES string.

On PYR1^PIRI, `CCOP(=S)(OCC)Oc1ccc2c(C)c(Cl)c(=O)oc2c1` [Coumaphos] returned a concentration for a half-maximal effect (EC50) of 2.68 µM and a Top of 36298. For the same compound, at PYR1^DIAZI, the EC50 turned out to be 0.772 µM, the Bottom worked out at 23886 and the Top was 61154.
Turning to `CCOP(=S)(OCC)SCn1nnc2ccccc2c1=O` [Azinphos, azinphos-ethyl], at PYR1^PIRI, it took 26.9 µM to reach a half-maximal effect (EC50) and the Top is 104767. For the same compound, on PYR1^DIAZI, the EC50 stood at 1.12 µM, the Bottom was 19538 and the Top came out at 91584.

The values are drawn from US20260258397A1, “REAGENTS AND SYSTEMS FOR […]” (priority 2023, published 2026).
